# PubChem BioAssay (NCI)
# Where a structure was tested more than once in an assay, its records may differ in their call.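 Interpretation: 100, growth as untreated; towards 0, rising growth inhibition; 0, no net growth; 0 to -100, cell death. Compounds scoring below 10 were considered active.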 Some entries of the source have several records that differ or are many. The list is limited to them. There may be further records. These are repeated runs of one drug, at the concentration stated with the values; one value stands for one run. Signs of the kind (2×) stand for listed records that agree.
# Key:
# CCRF-CEM leukemia = test: NCI-60 one-dose screen, 48 h (100 = growth as untreated, 0 = no growth, -100 = all killed); details: 25 µM
# MOLT-4 leukemia = test: as above; details: 0.25 µM
compound,measurement,setting,value
COc1cccc2c1C(=O)c1c(O)c3c(c(O)c1C2=O)C[C@@](O)(C(=O)CO)C[C@@H]3OC1CC(N)C(O)C(C)O1 (stereo not given in full),growth,CCRF-CEM leukemia; runs of 1998,"active: -30.4, 2.75, -6.67, -42, -57, -7.43, -54.9, -11.5, -27.5, -17.1, -33.2, 0.323, -16.9, -39.1, -33.7, -41.4, -32.1, -40.9, -28% and inactive: 99.1, 24.9, 35.8, 34.9, 14.4, 70.4%"
same,growth,CCRF-CEM leukemia; runs of 1999,"inactive: 18.5%, 11.5%, 13.6% and active: -43.2, 8.41, -79.5, 7.88%"
same,growth,CCRF-CEM leukemia; runs of 2000,"active: -29.5, -100, 6.18, -87.3%"
same,growth,MOLT-4 leukemia; runs of 2006,"active: 7.64%, -2.91%"
same,growth,MOLT-4 leukemia; runs of 2007,"active: 5.26, -3.21, -41.3, -7.48, -5.99, 6.07, -14.3, -2.45, 1.7, 2.44, 4.38, -8.23, -1.96, 4.75, -2.78, -4.74, -19.5, 0.16, 2.06, -1.2, 6.34, 8.17, -5.37, 1.22, 9.88, 6.58, 0.324, 6.23% and inactive: 20.5 (3×), 18.5, 15.1, 13.9, 12.5, 11.8, 16.3, 50.1, 27.6, 24, 17, 14.8%"
same,growth,MOLT-4 leukemia; runs of 2008,"inactive: 35.2, 12.5, 39.3, 36.4, 33, 84.4, 26.7, 23.4 (2×), 13.1, 60.7, 24.4, 27.4, 24.9, 16.3, 52.8, 13.3, 40.1, 58.6, 43.6, 47.6, 84.9, 11.6, 12, 15.2, 11.1 (2×), 35.8, 24.5, 22.8, 27.3, 20.2, 18.5, 46.7, 33.6% and active: -16, 1.6, 3.51, 6.53, -5.62, 0.968, -0.054, 1.88, 0.135, 3.42, 3.68, -9.84, -25.2, -20.4, -0.736, -12.2, -7.26, -6.42, -11, 7.88%"
same,growth,MOLT-4 leukemia; runs of 2009,"active: 0.123, -0.75, 3.72, 6.09, -19.6, -12.3, 3.95, 5.66, 9.73, 3.92, 7.46, 4.03, 9.37, 9.28, 5.3, 8.72, 5.97% and inactive: 11, 12.6, 23.8, 18.6, 19.1 (2×), 35.3, 41.4, 15.2, 10.8, 16.6, 16 (2×), 11.9, 20.5 (4×), 22.7, 16.5 (3×), 22.1, 21.2 (2×), 32.9, 33.7, 11.8, 11.4, 17, 17.1, 24.8 (2×), 30.3, 19.5, 15.6, 20.9, 12.4, 14.1 (2×), 22.8, 20.6, 12.9, 15.1, 15.5, 17.4%"
same,growth,MOLT-4 leukemia; runs of 2010,"inactive: 13.2, 16.4, 13.5, 11.7, 10.3, 25.1, 18.6, 21.8, 28.1, 20.7 (2×), 22.7, 19.1, 19.5 (2×), 18.9, 21.5 (2×), 20.2, 15.1, 12 (2×), 11, 11.9 (2×), 13.4, 14.1, 17.4, 10.1, 20.5, 21.1 (2×), 11.3, 21.2, 13.6, 24.7, 21.4, 15.2, 19.9, 20.9, 14.6% and active: 0.668, 5.28, 9.75, 0.241, 9.85, 8.41, -0.924%"
same,growth,MOLT-4 leukemia; runs of 2011,"active: 1.97, 8.09, 8.62, 1.45, -32.1, 1.88, 7.32, -1.33, 7.95, 8.35, 4.81, 2.36, -0.141, -14.8, -4.19, -19.6, 4.72, -0.782, 2.6, -15.5% and inactive: 20.6, 14.8, 38.1, 10.1, 18.4, 19.2, 16.5 (2×), 11.4, 29.6, 12.6, 17.9 (2×), 20.7, 24.7, 32.2, 13.2, 13.9 (2×), 22.4, 12 (2×), 22.2, 17.2, 25.1, 30.8, 13.5, 18.5, 21.6, 11.9, 18.1, 16.3, 16.4, 12.9, 18.6, 13.3, 10.6, 10.2, 22.7, 15.8%"
same,growth,MOLT-4 leukemia; runs of 2012,"inactive: 15.3, 18.6, 14.5, 11.8, 15.5, 12.7, 11.1, 14.1, 13.1, 18.4, 17.7 (2×), 18.1, 28.1, 20.9, 10.2, 25.8, 20.2, 21, 27.6, 19.9, 12.6, 20.7, 34.2, 11.4% and active: 4.05, -0.682, 7.43, 1.05, 1.36, 0.15, -10.1, -3.65, -7.87, -10.4, -14.2 (2×), -9.32, -13.3, -3.41, -12.9, -10 (2×), -11.9, -7.48, 6.94, 3.27, 0.589, 9.93, -7.39, 4.29, 6.32, -0.634, -0.306, -2.52, 2.66, 5.99, 8.08, 7.26, 4.7, 4.91, 0.0501, -4.81, 9.65, -26.5, -5.08, 4.71, 6.29, 1.69, 6.76, 2.79, -6.42%"
same,growth,MOLT-4 leukemia; runs of 2013,"active: 5.04, 5.75, -3.28, 5.91, 5.94, 6.69, -8.02, -3.21, 5.56, 8.81, 3.5, -21.4, 7.51, 6.27, 9.17, 8.09, 8.53, 7.7, 6.67, 4.81, 3.9, 1.66, 1.3, 5.23, -11.2, 1.24, 0.784, 3.84, 8.87, 3.04, 4.42, 4.01, 7.83, 6.19, 9.18, 8.86, 8.94, 8.68, 8.97, 8.8, 9.65, 9.52, 8.02, 8.06, 0.25% and inactive: 13, 10, 11.8 (2×), 10.8 (2×), 11.6, 10.4, 18.1, 19.1, 12.9, 15.6, 13.9, 13.5, 11.5, 20.7, 13.6 (2×), 12.7, 17.4 (2×), 15.1, 11.9, 15.5, 17.5, 12, 21.3, 16.3%"
same,growth,MOLT-4 leukemia; runs of 2014,"inactive: 14.7, 11.8 (2×), 17.6 (2×), 14.2 (3×), 10.8, 14 (2×), 17.1, 13.5 (2×), 17.2, 17.9 (2×), 17.4, 10.7 (2×), 14.6, 10.1 (2×), 14.3, 22.9, 15.6, 10.6, 11.7 (3×), 16.1, 18.9, 11.1, 12.6 (2×), 13.2, 13.6, 12.5, 16, 11.6, 10.3 (2×), 12, 12.2, 14.8 (2×), 12.9, 11.4, 18.2, 13.1, 26.2, 22.2% and active: 8.41, 3.07, -5.99, 7.12, 7.79, 3.26, 4.3, 2.55, 7.68, 7.86, 8.68, 7.05, 9.67, 8.67, 3.53, 1.09, 4.55, 4.99, 5.49, 5.93%"
same,growth,MOLT-4 leukemia; runs of 2015,"inactive: 16.6 (2×), 16.4 (2×), 13.1, 21.6, 24.1 (2×), 15.6, 11.7, 18.8 (2×), 12 (3×), 33.9, 36.9, 10.2 (2×), 22.1, 17.4, 17.5, 20.3, 26, 13.4, 11.8, 10.3, 17.7, 17.6, 28.3, 27.3, 11.6, 12.6 (2×), 18.2, 20.6, 18.4 (2×), 13.5, 18.5, 18.9, 29 (2×), 31.5, 13.2, 11.3, 28.5, 17.9, 14.6% and active: 9.26, 8.83, 6.67, 6.63, 9.32, 9.28, 1.34, 2.83, 8.77, 8.15, 7.36, 9.82, 7.5, 9.31, 8.56, 8.71, 8.36, 9.87, 7.82, 8.75%"
same,growth,MOLT-4 leukemia; runs of 2016,"inactive: 14.7 (2×), 11.1, 26.2, 13.3 (3×), 11.3 (2×), 11 (3×), 14.9 (2×), 16.3, 11.8 (2×), 10.7, 16.5, 20.1, 15.2, 18.1, 16, 10.2, 12, 13.4 (2×), 14.3, 18.6 (2×), 12.6, 14, 14.5, 17.9, 18.5, 11.6 (2×), 10.4, 21.4, 20.4, 19.5, 20.6, 13.2, 23.4, 24.9, 12.2 (2×), 16.4, 15.3, 13.6, 11.4% and active: 8.81, 9.16, 3.37, 8.25, 9.36, 9.96, 9.46, 8.66, 6.71, 9.79, 9.89%"
same,growth,MOLT-4 leukemia; runs of 2017,"inactive: 12.9 (3×), 11.7 (2×), 10.4 (5×), 15.5, 12.2 (2×), 11.1 (5×), 14.3 (2×), 11.6 (3×), 13.4, 10, 17, 10.8, 12.4, 11.5, 17.9, 12.7 (2×), 14.2 (2×), 14.1, 14.9 (2×), 13.9, 13.1, 15.7, 16, 15.8, 11.3, 11.9, 18.6, 18.9% and active: 9.33, 9.53, 7.01, 6.15, 4.4, 9.89, 7.92, 9.35, 2.71, -5.05, 9.8, 9.25, 8.32, 6.62, 7.51, 8.33, 9.11, 6.24, 8.78, 9.75, 7.84, 9.28, 9.34, -2.61, 6.26, 9.29, 8.28, 9.05, 7.11%"
